Assay results from PubChem BioAssay (NCATS).
Several values for one entry are separate records, joined by “and”; a condition that tells them apart may be missing. Identical values can stand only once. Inconclusive means that the source gave no clear call. Such entries were picked first, then a sample of the others. Potencies of inconclusive entries are doubtful fits and often do not repeat. Activity calls are given as the source filed them. Calls follow the shape of the dose curve; as a rule, active = well fitted inhibition curve with a large enough effect; inconclusive = small, poorly fitted or top-dose-only effect; inactive = flat fitted curve, though single readings scatter.

Target: Ubiquitin carboxyl-terminal hydrolase 1 (Homo sapiens) (UniProt O94782)
Chain of UniProt O94782 (O94782 whole entry, looked up): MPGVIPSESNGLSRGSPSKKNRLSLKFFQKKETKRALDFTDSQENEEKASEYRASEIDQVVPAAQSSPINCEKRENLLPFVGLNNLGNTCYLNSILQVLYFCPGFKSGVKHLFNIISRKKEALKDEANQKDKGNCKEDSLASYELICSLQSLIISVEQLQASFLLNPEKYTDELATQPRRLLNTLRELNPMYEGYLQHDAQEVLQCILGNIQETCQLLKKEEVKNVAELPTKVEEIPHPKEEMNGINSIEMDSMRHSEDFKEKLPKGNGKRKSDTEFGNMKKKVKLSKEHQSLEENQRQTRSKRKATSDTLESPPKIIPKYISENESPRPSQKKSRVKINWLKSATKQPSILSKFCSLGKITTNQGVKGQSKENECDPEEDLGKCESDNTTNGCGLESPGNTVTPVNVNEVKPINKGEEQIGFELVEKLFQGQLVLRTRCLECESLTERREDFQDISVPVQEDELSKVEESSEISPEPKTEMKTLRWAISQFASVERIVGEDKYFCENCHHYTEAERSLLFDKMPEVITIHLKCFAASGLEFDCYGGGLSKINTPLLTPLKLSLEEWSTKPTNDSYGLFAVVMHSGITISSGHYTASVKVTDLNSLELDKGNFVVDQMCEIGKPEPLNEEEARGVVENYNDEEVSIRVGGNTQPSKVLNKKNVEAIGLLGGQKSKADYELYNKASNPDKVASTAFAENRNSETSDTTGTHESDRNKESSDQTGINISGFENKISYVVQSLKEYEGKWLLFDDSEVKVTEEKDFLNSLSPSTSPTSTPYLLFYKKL
Assay: Inhibitors of USP1/UAF1: Pilot qHTS (AID 504865);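 also: rhodamine fluorescence freed from ubiquitin-rhodamine substrate followed over time; nearly all actives have a fitted effect of over 35% in size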
Settings: purified USP1/UAF1, Ub-rhodamine cleavage fluorescence; series mostly up to 114 µM
In short: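 USP1/UAF1 complex at 1 nM preincubated 15 min at room temperature with compound, then Ub-Rho substrate added at 150 nM final. Fluorescence (480/540 nm) read kinetically in 50 mM HEPES pH 7.8, 0.5 mM EDTA, 1 mM TCEP, 0.1 mg/ml BSA, 0.01% Tween-20.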
Potency is read from the fitted curve at half-maximal effect; tags tell the direction and shape of the fitted curve.

With `CCCCCCCCCCCCCCCCOCCOCCOCCOCCOCCOCCOCCOCCOCCOCCOCCOCCOCCOCCOCCOCCOCCOCCOCCOCCO` as the compound, how does the Potency read?
The Potency was inconclusive: 79.4 µM [inhibitor, partial curve].

For `CC(C[N+](C)(C)C)OC(N)=O` (stereo not given), which Potency is on record?
The Potency was inconclusive: 112 µM [inhibitor, partial curve, poor fit].

With `O=S1(=O)OC(c2ccc(O)cc2)(c2ccc(O)cc2)c2ccccc21` as the compound, how does the Potency read?
Its Potency is inconclusive: 50.1 µM [inhibitor, partial curve].

How did the Potency turn out when `CCCCCCCCCCCCCCCCCC(=O)OCC(O)CO` (stereo not given) was run?
The Potency was inconclusive: 4.47 µM [inhibitor, partial curve, poor fit].

`COc1c2occc2c(OC)c2c(=O)cc(C)oc12` was tested. Which Potency did it give?
The Potency was active: 39.8 µM.

For `CC1(CN2CCC(n3c(=O)[nH]c4ccccc43)CC2)OCc2ccccc2-n2cccc21` (stereo not given), which Potency is on record?
The Potency was inconclusive: 44.7 µM [inhibitor, partial curve].

Which Potency does the source give for `COCc1c(C(C)C)nc(C(C)C)c(/C=C/[C@@H](O)C[C@@H](O)CC(=O)O)c1-c1ccc(F)cc1` here?
The Potency was “inactive”.

Which Potency does the source give for `CCCCCCCCCCCCCCCC[N+](C)(C)Cc1ccccc1` here?
The Potency was active: 50.1 µM.

`CCOc1ccc2nc3cc(N)ccc3c(N)c2c1` was tested. Which Potency did it give?
Its Potency is active: 50.1 µM.

How did the Potency turn out when `Oc1c(Cl)cc(Cl)c(Cl)c1Cc1c(O)c(Cl)cc(Cl)c1Cl` was run?
The Potency was active: 79.4 µM and active: 31.6 µM.

Which Potency does the source give for `CC/C(=C(/CC)c1ccc(O)cc1)c1ccc(O)cc1` here?
The Potency was inconclusive: 63.1 µM [inhibitor, partial curve, poor fit] and inconclusive: 44.7 µM [inhibitor, partial curve].

With `CCCCC(CC)CN=C(N)NC(N)=NCCCCCCN=C(N)NC(N)=NCC(CC)CCCC` (stereo not given) as the compound, how does the Potency read?
The Potency was active: 22.4 µM.

With `NC(=NCCCCCCN=C(N)/N=C(\N)Nc1ccc(Cl)cc1)/N=C(\N)Nc1ccc(Cl)cc1` as the compound, how does the Potency read?
Its Potency is active: 56.2 µM and active: 50.1 µM.

For `CCCCCCCCCCCCCC[n+]1ccc(C)cc1`, which Potency is on record?
The Potency was active: 56.2 µM.

How did the Potency turn out when `Cc1cc(-c2ccc(N=Nc3c(S(=O)(=O)O)cc4cc(S(=O)(=O)O)cc(N)c4c3O)c(C)c2)ccc1N=Nc1c(S(=O)(=O)O)cc2cc(S(=O)(=O)O)cc(N)c2c1O` was run?
Its Potency is active: 8.91 µM.

How did the Potency turn out when `C[C@H](O)C(=O)Nc1c(I)c(C(=O)NC(CO)CO)c(I)c(C(=O)NC(CO)CO)c1I` was run?
The Potency was inconclusive: 39.8 µM [inhibitor, single point].

How did the Potency turn out when `Cc1cc(-c2ccccc2)nnc1NCCN1CCOCC1` was run?
The Potency was “inactive”.

How did the Potency turn out when `CCCC(=O)O[C@]1(C(=O)CCl)[C@H](C)C[C@@H]2[C@H]3CCC4=CC(=O)C=C[C@]4(C)[C@@]3(F)C(=O)C[C@@]21C` was run?
Its Potency is inconclusive: 12.6 µM [inhibitor, partial curve, poor fit].

How did the Potency turn out when `CO[C@H]1C[C@@H]2CC[C@@H](C)[C@@](O)(O2)C(=O)C(=O)N2CCCC[C@H]2C(=O)O[C@H]([C@H](C)C[C@@H]2CC[C@@H](OCCO)[C@H](OC)C2)CC(=O)[C@H](C)/C=C(\C)[C@@H](O)[C@@H](OC)C(=O)[C@H](C)C[C@H](C)/C=C/C=C/C=C/1C` was run?
The Potency was inconclusive: 39.8 µM [inhibitor, partial curve].

With `CN=C1C=CC(=C(c2ccc(N(C)C)cc2)c2ccc(N(C)C)cc2)C=C1` as the compound, how does the Potency read?
Its Potency is active: 20 µM.

Which Potency does the source give for `CC(C)(C)C(=O)OCOC(=O)[C@@H]1N2C(=O)[C@@H](NC(=O)[C@H](N)c3ccccc3)[C@H]2SC1(C)C` here?
The Potency was “inactive”.

For `O=C(Nc1cccc(C(F)(F)F)c1)c1cc(Br)cc(Br)c1O`, which Potency is on record?
Its Potency is inconclusive: 56.2 µM [inhibitor, partial curve, poor fit].

`CN(C)C(=O)CCSC(SCCC(=O)O)c1cccc(/C=C/c2ccc3ccc(Cl)cc3n2)c1` (stereo not given) was tested. Which Potency did it give?
The Potency was active: 50.1 µM.

For `O=CCCCC=O`, which Potency is on record?
The Potency was inconclusive: 56.2 µM [inhibitor, partial curve, poor fit].

With `CCCCCCCCCCCCCCCC[N+](C)(C)CCN(Cc1ccc(OC)cc1)c1ncccn1` as the compound, how does the Potency read?
The Potency was active: 31.6 µM.

How did the Potency turn out when `O=C(Nc1ncc([N+](=O)[O-])s1)c1cccs1` was run?
The Potency was inconclusive: 50.1 µM [inhibitor, partial curve].

`CCCCCCCC(=O)O` was tested. Which Potency did it give?
The Potency was “inactive”.

`CC[C@@]1(O)C(=O)OCc2c1cc1n(c2=O)Cc2cc3c([N+](=O)[O-])cccc3nc2-1` was tested. Which Potency did it give?
The Potency was inconclusive: 63.1 µM [inhibitor, partial curve, poor fit].

Which Potency does the source give for `CCN(CC)CCNC(=O)c1c(C)[nH]c(/C=C2\C(=O)Nc3ccc(F)cc32)c1C` here?
The Potency was inconclusive: 89.1 µM [inhibitor, partial curve, poor fit].

`Cc1cccc(C)c1NC(=O)CN1CCN(CCCC(c2ccc(F)cc2)c2ccc(F)cc2)CC1` was tested. Which Potency did it give?
The Potency was inconclusive: 22.4 µM [inhibitor, partial curve, poor fit].

How did the Potency turn out when `CCNC(=O)[C@@H]1CCCN1C(=O)[C@H](CCCN=C(N)N)NC(=O)[C@H](CC(C)C)NC(=O)[C@@H](Cc1c[nH]c2ccccc12)NC(=O)[C@H](Cc1ccc(O)cc1)NC(=O)[C@H](CO)NC(=O)[C@H](Cc1c[nH]c2ccccc12)NC(=O)[C@H](Cc1cnc[nH]1)NC(=O)[C@@H]1CCC(=O)N1` was run?
Its Potency is inconclusive: 56.2 µM [inhibitor, partial curve, poor fit].

`CCOc1ccc(Cc2nccc3cc(OCC)c(OCC)cc23)cc1OCC` was tested. Which Potency did it give?
Its Potency is inconclusive: 25.1 µM [inhibitor, partial curve, poor fit] and inconclusive: 56.2 µM [inhibitor, partial curve].

`Cc1ccc(C(C)C)cc2c(C)ccc1-2` was tested. Which Potency did it give?
Its Potency is inconclusive: 89.1 µM [inhibitor, partial curve, poor fit].

How did the Potency turn out when `CC(C)N=c1cc2n(-c3ccc(Cl)cc3)c3ccccc3nc-2cc1Nc1ccc(Cl)cc1` was run?
Its Potency is inconclusive: 15.8 µM [inhibitor, partial curve].

`O=C1CSC2(CCN(CCCN3c4ccccc4Sc4ccc(Cl)cc43)CC2)N1` was tested. Which Potency did it give?
Its Potency is inconclusive: 17.8 µM [inhibitor, full curve].

For `Oc1c(I)cc(I)c2cccnc12`, which Potency is on record?
Its Potency is inconclusive: 79.4 µM [inhibitor, partial curve].

`CC1=CC(=C(c2ccc(N)cc2)c2ccc(N)cc2)C=CC1=N` was tested. Which Potency did it give?
The Potency was inconclusive: 56.2 µM [inhibitor, partial curve, poor fit].

`NC[C@H](O)c1ccc(O)c(O)c1` was tested. Which Potency did it give?
The Potency was inconclusive: 56.2 µM [inhibitor, partial curve, poor fit].

How did the Potency turn out when `CN(C)c1ccc(C(=C2C=CC(=[N+](C)C)C=C2)c2c(O)c(S(=O)(=O)[O-])cc3cc(S(=O)(=O)O)ccc23)cc1` was run?
Its Potency is active: 56.2 µM.

For `CCCCCCCCCCCC[n+]1ccc2ccccc2c1`, which Potency is on record?
The Potency was active: 89.1 µM.
